Target: human CD3 receptor complex (human, UniProt P07766; P09693; P04234)
Assay: cell-based or functional assay

UniProt P07766, sequence (P07766 23-207, chain 1 of 3): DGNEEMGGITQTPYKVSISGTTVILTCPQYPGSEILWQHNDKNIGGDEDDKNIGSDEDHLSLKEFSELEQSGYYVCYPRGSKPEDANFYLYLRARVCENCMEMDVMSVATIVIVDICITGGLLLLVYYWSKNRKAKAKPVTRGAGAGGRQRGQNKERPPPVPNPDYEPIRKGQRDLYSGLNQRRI
UniProt P07766, sequence (P09693 23-182, chain 2 of 3, further chain): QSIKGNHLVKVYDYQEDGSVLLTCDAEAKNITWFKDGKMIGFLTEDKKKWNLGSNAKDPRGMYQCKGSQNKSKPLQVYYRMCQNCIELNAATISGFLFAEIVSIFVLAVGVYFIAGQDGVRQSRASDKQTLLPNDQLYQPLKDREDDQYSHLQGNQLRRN
UniProt P07766, sequence (P04234 22-171, chain 3 of 3, further chain): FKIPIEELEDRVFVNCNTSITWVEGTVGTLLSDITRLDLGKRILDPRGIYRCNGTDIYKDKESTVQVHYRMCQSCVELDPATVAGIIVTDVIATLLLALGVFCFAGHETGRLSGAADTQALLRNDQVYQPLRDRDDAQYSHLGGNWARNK

Activity (EC50 for activation of Jurkat line cells, pM): 276 pM
B1: 309_05_B08 (bispecific antibody)
chain: DIQLTQTPASLAVSLGQRATISCKASQSVDYDGDSYLNWYQQIPGQPPKLLIYDASNLVSGIPPRFSGSGSGTDFTLNIHPVEKVDAATYHCQQSTEDPWTFGGGTKLEIKGGSGGAMA[letters of about 100 residues not shown]STVTRPDFDYWGQGTLVTVSSGGGGSGGGGSGGGASNFMLTQPHSVSESPGKTVTISCTRSSGSIARNYVQWYQQRPGSAPTTVIYEDNQRPSGVPDRFSGSIDSSSNSASLTISGLKTEDEADYYCQSYDSSNQRVFGGGTKVTVLGQPAAAGGGGSQVQLQQSGAELVRPGSSVKISCKASGYAFSSYWMNWVKQRPGQGLEWIGQIWPGDGDTNYNGKFKGKATLTADESSSTAYMQLSSLASEDSAVYFCARRETTTVGRYYYAMDYWGQGTSVTVSSASAAVECPPCPAPPVAGPSVFLFPPKPKDTLMISRTPEVTCVVVDVSHEDPEVQFNWYVDGVEVHNAKTKPREEQFNSTFRVVSVLTVVHQDWLNGKEYKCKVSNKGLPAPIEKTISKTKGQPREPQVYTLPPSREEMTKNQVSLTCLVKGFYPSDIAVEWESNGQPENNYKTTPPMLDSDGSFFLYSKLTVDKSRWQQGNVFSCSVMHEALHNHYTQKSLSLSPGK
